Measurements taken from article PMC4265151.
These are yes or no findings as the source states them, for the method shown. Some entries that bind do so weakly or less than the wild type.

T1: KCBP_(12–923) (Arabidopsis thaliana) (UniProt Q9FHN8)
T1 sequence: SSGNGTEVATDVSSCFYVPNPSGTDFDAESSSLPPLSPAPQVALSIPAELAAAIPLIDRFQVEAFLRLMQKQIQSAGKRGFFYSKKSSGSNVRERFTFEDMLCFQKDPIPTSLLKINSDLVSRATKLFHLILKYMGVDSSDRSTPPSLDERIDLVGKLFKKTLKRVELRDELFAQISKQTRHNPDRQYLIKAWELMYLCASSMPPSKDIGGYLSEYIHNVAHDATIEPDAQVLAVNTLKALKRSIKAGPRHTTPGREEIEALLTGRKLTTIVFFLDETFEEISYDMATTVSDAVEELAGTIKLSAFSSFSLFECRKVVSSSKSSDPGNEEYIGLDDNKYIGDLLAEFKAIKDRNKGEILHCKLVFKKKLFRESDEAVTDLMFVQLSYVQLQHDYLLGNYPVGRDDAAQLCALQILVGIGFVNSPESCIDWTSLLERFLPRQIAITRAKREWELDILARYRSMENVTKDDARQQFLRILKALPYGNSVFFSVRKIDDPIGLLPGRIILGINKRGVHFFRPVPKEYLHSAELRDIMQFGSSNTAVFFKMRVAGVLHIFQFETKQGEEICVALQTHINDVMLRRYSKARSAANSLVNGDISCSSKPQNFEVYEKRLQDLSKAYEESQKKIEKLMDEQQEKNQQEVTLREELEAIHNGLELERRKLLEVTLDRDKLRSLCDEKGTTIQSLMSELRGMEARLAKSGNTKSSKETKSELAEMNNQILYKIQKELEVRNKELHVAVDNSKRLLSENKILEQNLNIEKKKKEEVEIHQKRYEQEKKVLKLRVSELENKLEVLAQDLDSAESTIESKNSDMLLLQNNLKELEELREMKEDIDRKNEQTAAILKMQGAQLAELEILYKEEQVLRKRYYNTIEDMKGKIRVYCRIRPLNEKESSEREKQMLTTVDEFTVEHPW

T2: KCBP_(12–622) (Arabidopsis thaliana) (UniProt Q9FHN8)
T2 sequence: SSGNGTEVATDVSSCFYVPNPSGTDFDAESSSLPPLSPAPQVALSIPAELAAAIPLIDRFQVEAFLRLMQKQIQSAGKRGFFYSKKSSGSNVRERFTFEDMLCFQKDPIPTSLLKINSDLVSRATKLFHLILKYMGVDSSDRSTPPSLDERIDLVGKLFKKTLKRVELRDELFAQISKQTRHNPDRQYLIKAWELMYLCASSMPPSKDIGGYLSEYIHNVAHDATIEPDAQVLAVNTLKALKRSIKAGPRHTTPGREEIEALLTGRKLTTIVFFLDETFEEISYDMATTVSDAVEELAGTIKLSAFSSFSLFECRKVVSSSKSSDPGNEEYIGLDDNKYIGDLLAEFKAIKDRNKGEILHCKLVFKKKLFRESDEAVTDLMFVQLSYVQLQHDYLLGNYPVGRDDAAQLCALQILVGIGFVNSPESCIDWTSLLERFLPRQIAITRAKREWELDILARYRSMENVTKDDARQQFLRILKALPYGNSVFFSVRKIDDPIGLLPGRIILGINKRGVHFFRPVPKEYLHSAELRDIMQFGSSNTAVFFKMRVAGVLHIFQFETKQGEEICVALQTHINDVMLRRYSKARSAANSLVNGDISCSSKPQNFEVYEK


Tests used:
[1] = molecular target: T1, KCBP_(12–923) (Arabidopsis thaliana); assay: two-hybrid; pairwise: pGBKT7 (GAL4 DNA-binding domain) and pGADT7 (GAL4 activation domain) plasmids in yeast Y187, SD-Leu-Trp; filter lifts for beta-galactosidase with X-Gal (blue colour); negatives monitored for up to 24 h, PERK8 and -9 transformants for shorter times because of some background activity
[2] = molecular target: T2, KCBP_(12–622) (Arabidopsis thaliana); assay: as above

Binder	binding [1]	binding [2]
KIPK1_(303–934) (domain or fragment, UniProt Q9LFA2 303-934) NISSSAVDSEQKGKLDDAPNSGTENGKTVRKVTRMIPRPKQPKKKILLKKKLKIGVVSATYPTKDDEEIVPSLDSSANQLLCQRCHCSLKSTSIDDNPPSYTSSHNPKICTDSLSSVSNKEAHQGSDENSSGSCNVSQSSEADIVIMKQDVSSSNNSGIGAMVEKETENPTSSEKFEFSLSSKDSLGDYSRSTSISEESNLSRFSCGNKPHMSMDVRWEAIKHIKVQYGSLGLRHFNLLKKLGCGDIGTVYLAELIGTNCLFAIKVMDNEFLARRKKSPRAQAEREILKMLDHPFLPTLYAQFTSDNLSCLVMEYCPGGDLHVLRQKQLGRCFPEPAARFYVAEILLALEYLHMLGIIYRDLKPENILVREDGHIMLTDFDLSLRCAVNPTLVRSNSPPGKDPARISGPYNTSNCIQPFCITEPSCQVSCFSPRLSSNQQQGRKPKRGDHLSKTQQHLSRSLPQLVAEPTEARSNSFVGTHEYLAPEIIKGEGHGAAVDWWTFGVLLYELLYGKTPFKGYNNDETLANVVLQNLKFPDSPLVSFQAKDLIRGLLVKEPENRLGSEKGSVEIKRHPFFEGLNWALIRCAIPPELPDFYEYGGGPEAAADSPGGSNNRYLECKAIGDHLEFELF	binds	–
KIPK2_(277–948) (domain or fragment, UniProt Q9SJM3 277-948) PHMVIEDQLVEIDKHVTSLPSCSGSKVDTEELDKSIVSSARVKSEPTALSSGLKGKLDNFPGSGTEKSKLVSKVTRNIPRPKPRPKKKILLKKKLKIVVNSATKMVEEVDTSLEPSASQLLCQKCHCAVKSTSTENHPPSNTSHTTDKNVSIEADQESLASPRLIRIVKCNKEASKGSSDSCEVSDSGEAVIVMKQEVSPSNYSGKGDADEQIRANPTSSEKFDFSLSSKNSLGDYSSSTSMSEESNLSRFSCGNKPHMSMDVRWEAVKHVKLQYGSLGLRHFNLLKKLGCGDIGTVYLAELVGTNCLFAIKVMDNEFLARRKKTPRAQAERAILKMLDHPFLPTLYAQFTSDNLSCLVMEYCPGGDLHVLRQKQLSRCFSEPATRFYVAEILLALEYLHMLGVIYRDLKPENILVREDGHIMLTDFDLSLRCAVNPTLLRSTSPPEKDPARMSGPYSTSNCIQPLCIEPSCRVPCFSPRLLSTQARNQKPRKPKRPDLLTQQFRSLPQLVAEPTEARSNSFVGTHEYLAPEIIKGEGHGAAVDWWTFGVLLYELLYGKTPFKGYDNEETLSNVVYQNLKFPDSPLVSFQAKELIRRLLVKDPESRLGSEKGAAEIKRHPFFEGLNWALIRCAIPPELPDIYDNGATEATSPEGNNRYLECKAIGDHLEFEL	binds	binds
KIPK1_(84–582) (domain or fragment, UniProt Q9LFA2 84-582) SAGPSRTTSPSKRIASMKKPGTPQSPRFVGLSDSVSLKQALRDRCISKASEMAAQKRLSKSAAASPRVSEADRIKSLYNQVSNESTSSRSGLVPVDKGKGSLVEIPLMPVNDKPSSSKSVPQRFEDPSNPISEPSQAGTSFGLQGVGNQTREIKLLHRSNKPGSCLSSGSGDYEIELDENVASPSTHAFVEDDVIEIDKHVTSLPSHSSKKVNATELDKNISSSAVDSEQKGKLDDAPNSGTENGKTVRKVTRMIPRPKQPKKKILLKKKLKIGVVSATYPTKDDEEIVPSLDSSANQLLCQRCHCSLKSTSIDDNPPSYTSSHNPKICTDSLSSVSNKEAHQGSDENSSGSCNVSQSSEADIVIMKQDVSSSNNSGIGAMVEKETENPTSSEKFEFSLSSKDSLGDYSRSTSISEESNLSRFSCGNKPHMSMDVRWEAIKHIKVQYGSLGLRHFNLLKKLGCGDIGTVYLAELIGTNCLFAIKVMDNEFLARRKKSPR	binds	binds
KIPK1_(303–582) (domain or fragment, UniProt Q9LFA2 303-582) NISSSAVDSEQKGKLDDAPNSGTENGKTVRKVTRMIPRPKQPKKKILLKKKLKIGVVSATYPTKDDEEIVPSLDSSANQLLCQRCHCSLKSTSIDDNPPSYTSSHNPKICTDSLSSVSNKEAHQGSDENSSGSCNVSQSSEADIVIMKQDVSSSNNSGIGAMVEKETENPTSSEKFEFSLSSKDSLGDYSRSTSISEESNLSRFSCGNKPHMSMDVRWEAIKHIKVQYGSLGLRHFNLLKKLGCGDIGTVYLAELIGTNCLFAIKVMDNEFLARRKKSPR	binds	binds
KIPK2_(277–624) (domain or fragment, UniProt Q9SJM3 277-624) PHMVIEDQLVEIDKHVTSLPSCSGSKVDTEELDKSIVSSARVKSEPTALSSGLKGKLDNFPGSGTEKSKLVSKVTRNIPRPKPRPKKKILLKKKLKIVVNSATKMVEEVDTSLEPSASQLLCQKCHCAVKSTSTENHPPSNTSHTTDKNVSIEADQESLASPRLIRIVKCNKEASKGSSDSCEVSDSGEAVIVMKQEVSPSNYSGKGDADEQIRANPTSSEKFDFSLSSKNSLGDYSSSTSMSEESNLSRFSCGNKPHMSMDVRWEAVKHVKLQYGSLGLRHFNLLKKLGCGDIGTVYLAELVGTNCLFAIKVMDNEFLARRKKTPRAQAERAILKMLDHPFLPTLYA	no binding	no binding
